The values that follow come from the supplement of paper PMC3334620.

Whole data set: some 33,000 sequences, median “E-score (-0.5 to 0.5)” near -0.035, cut for the highest 2% near 0.35. The list shows a part of the results.

For this experiment, the target named is T1, Pdr3 (UniProt P33200).
T1 sequence: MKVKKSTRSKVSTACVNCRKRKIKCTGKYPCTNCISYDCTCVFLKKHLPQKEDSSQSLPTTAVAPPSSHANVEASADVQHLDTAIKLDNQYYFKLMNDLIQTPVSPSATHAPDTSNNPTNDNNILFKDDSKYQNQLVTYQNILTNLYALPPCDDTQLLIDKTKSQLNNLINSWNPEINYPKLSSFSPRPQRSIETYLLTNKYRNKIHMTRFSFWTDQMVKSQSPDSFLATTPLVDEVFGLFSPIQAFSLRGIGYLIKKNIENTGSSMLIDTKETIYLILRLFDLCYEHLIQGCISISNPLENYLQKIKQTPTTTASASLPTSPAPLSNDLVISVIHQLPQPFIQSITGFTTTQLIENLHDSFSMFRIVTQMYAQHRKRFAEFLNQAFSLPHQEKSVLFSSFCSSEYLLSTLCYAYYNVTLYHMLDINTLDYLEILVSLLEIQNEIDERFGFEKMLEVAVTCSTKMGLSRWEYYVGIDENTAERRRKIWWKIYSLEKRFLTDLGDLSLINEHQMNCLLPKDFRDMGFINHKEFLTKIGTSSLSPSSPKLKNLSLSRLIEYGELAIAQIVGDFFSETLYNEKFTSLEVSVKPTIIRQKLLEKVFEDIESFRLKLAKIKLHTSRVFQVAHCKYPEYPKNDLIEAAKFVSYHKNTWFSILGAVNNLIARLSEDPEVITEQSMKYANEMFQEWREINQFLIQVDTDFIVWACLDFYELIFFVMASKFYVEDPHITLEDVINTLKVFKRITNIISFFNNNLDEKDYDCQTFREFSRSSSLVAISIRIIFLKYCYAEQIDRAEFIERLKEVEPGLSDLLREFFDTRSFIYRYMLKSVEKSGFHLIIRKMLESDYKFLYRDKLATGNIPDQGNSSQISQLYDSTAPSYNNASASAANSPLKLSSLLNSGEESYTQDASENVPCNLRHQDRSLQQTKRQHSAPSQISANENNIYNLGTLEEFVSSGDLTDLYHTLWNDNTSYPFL
Description: PBM E-score (8-mer binding enrichment) (E-score (-0.5 to 0.5)); higher = stronger / more preferred TF binding; most listed sequences are background and not binding sites. Particulars: protein concentration: 200 nM; construct: GST-full length. The method, then:
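Universal 'all 10-mer' protein binding microarrays (Agilent AMADID 015681) probed with GST-tagged S. cerevisiae TFs (full-length or DBD) made by in vitro transcription/translation (PURExpress), about 100-200 nM. Bound TF was detected with fluorescent anti-GST. Each ungapped 8-mer (which stands for itself and its reverse complement) is scored by the PBM enrichment score (E-score), a modified Wilcoxon-Mann-Whitney statistic from -0.5 to +0.5, computed with the Universal PBM Analysis Suite. Scale: above 0.35 generally sequence-specific binding.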
Turning to CTGGTGTA, the “PBM E-score” value was -0.172.
Regarding ACGATTGG, the “PBM E-score” value was -0.0144.
On to AGCGGTTA, for which the “PBM E-score” value is -0.121.
The same measure for AGGGAGCG: -0.0856; for ATGCCTTC: -0.222.
For CACCGGAA, the “PBM E-score” value stood at 0.46.
For CCATGTGA, the “PBM E-score” value is -0.17.
As for AAATTAGA, the figure is -0.0404.
The same measure for CTCGTTGA: -0.233; for TCCAATCA: 0.0101.
The same measure for ATTGACAG: -0.115.
Regarding GAAAGTCC, the “PBM E-score” value is -0.00556.
Turning to GAATTCAC, the “PBM E-score” value came out at 0.0392.
The same measure for GTATCCAA: -0.0553; for ATCCTCAA: -0.139; for GCAATCGA: -0.0276.
The same measure for ATTACGCG: 0.119; for ACGTCATG: -0.124.
As for ACCAGCGA, the figure is 0.11; as for CGGGTAAC, 0.267.
Consider CAGCCGCA, for which the “PBM E-score” value was -0.0661.
As for ACCTTTGA, the figure is -0.189.
As for GGGAAGAC, the figure is -0.0964.
As for TAGCTAAA, the “PBM E-score” value was -0.228.
The same measure for AGGGATGG: 0.112.
The same measure for AGTTTTGC: -0.0368.
As for CGGACTAA, the figure is 0.268; as for CACACCAG, -0.198; as for ACGACGCA, -0.00033.
With AATCCCCA, the “PBM E-score” value was 0.0592.
The same measure for CTGCACAG: -0.139; for AGATTTTA: -0.204; for TATTGGGA: -0.105.
The same measure for GGAGGACC: 0.0976.
The same measure for CACCGATG: -0.185; for CCCGATTA: 0.148.
Take AGGACTGC: the “PBM E-score” value is -0.377.
As for AGACTCAG, the figure is -0.0747.
As for GGTACTAC, the figure is -0.00175; as for CTTCGGGC, -0.0458.
In the case of AGTAGCCC, the “PBM E-score” value was -0.0951.
As for CGCAGTTC, the figure is 0.119; as for CCACTAAG, 0.00787.
The same measure for AGTGGCAT: -0.103; for GCGAAGCA: 0.172.
The same measure for CCATGAAA: 0.00658.
On to CTAGCCAC, for which the “PBM E-score” value is -0.331.
As for GCGTTGTA, the figure is -0.0598.
The same measure for CCGGAGAC: 0.37.
Take CAGAGGAC: the “PBM E-score” value is -0.132.
As for ACTAGTAT, the figure is 0.0316; as for ATAGAACC, -0.0736.
The same measure for ACAGACCA: 0.0819; for ACGGATCT: 0.271; for GTATTCGA: -0.0737.
The same measure for GTGGGCGA: -0.133; for GGAACTCA: 0.257; for TCATGGAA: 0.0232.
AGTAGCAC: the “PBM E-score” value was -0.104.
The same measure for AAGGATAG: -0.0728.
As for CTGACCGC, the figure is 0.166.
The same measure for TCATAGGA: -0.156; for ACATGGGT: -0.0665.
Regarding ACAAGGGT, the “PBM E-score” value was -0.0359.
The same measure for CGCGGATA: 0.412.
The same measure for GGTAGTCA: -0.186; for ATCACCAG: -0.0765; for ACTGAAAA: -0.0582.
As for CTTCTCTC, the figure is -0.032; as for ACGCCTCG, 0.0615; as for CTTAGCTA, -0.199.
On to AGCTACGC, for which the “PBM E-score” value was -0.107.
Turning to TAAAGAAA, the “PBM E-score” value was -0.0608.
The same measure for ACGTTAGG: -0.263; for ACGAACGC: 0.147.
As for AAACAGCC, the figure is -0.114; as for GCTACGAA, -0.194.
The same measure for ATGATTGG: 0.0449.
ACTCATCC: the “PBM E-score” value worked out at 0.0641.
Turning to GACCCACC, the “PBM E-score” value is -0.0584.
As for GATACCCA, the figure is -0.0647; as for AACGCTCC, -0.158.
The same measure for CAATCTGG: -0.0845; for CACATTAA: -0.168; for TAGATCAA: -0.14.
The same measure for AAAGTGAT: -0.0819.
